The record followed here is PubChem BioAssay AID1347073 (National Center for Advancing Translational Sciences (NCATS), 2019).

Hit rate of the full screen: of about 45,000 compounds, about 200 (0.44%) were called active. Not shown: some 7% with an inconclusive outcome. The call rests on the fitted dose curve; in most records, active means well fitted activation curve with a large enough effect; inconclusive means small, poorly fitted or top-dose-only effect; inactive means no such curve, though single readings can be large or run the other way. This is one part of the list.

The assay can be described thus: qHTS of TDP-43 Inhibitors: NCGC Sytravon Library Screen. Further: 0% is about no effect; nearly all actives have a fitted effect of over 55% in size. Conditions: yeast TDP-43 toxicity rescue, BacTiter-Glo growth, 24 h; series mostly up to 46.1 µM; growth rescue (activation): at the top concentration. Put shortly:
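TDP-43-expressing yeast, pregrown in raffinose, seeded at OD600 0.02 in galactose medium with compound for 24 hr at 30 deg C. Growth read by BacTiter-Glo luminescence, so rescue of toxicity appears as activation.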
In general terms: Quantitative high-throughput screening tests each substance at several concentrations.
Consider `O=c1oc2ccccc2cc1-c1nc2c(s1)CCc1ccccc1-2`, for which the “growth rescue (activation)” value was inactive: 19.9%.

Regarding `CCOC(=O)C1(CCCc2ccccc2)CCN(C(=O)c2cc(C)nc(C)n2)CC1`, the “growth rescue (activation)” value was inactive: 18.6%. For the compound `CC(C)CCNC(=O)CN(Cc1ccccc1Cl)C(=O)CCC(=O)Nc1ccccn1`, the “growth rescue (activation)” value was inactive: -1.57%. In the case of `O=S(=O)(Cc1ccc(Cl)cc1)c1ncc(CO)n1Cc1ccccc1`, the “growth rescue (activation)” value was inactive: 7.43%. On to `CC1CCCC(C)N1C(=O)COC(=O)c1cc(Br)ccc1Cl` (configuration not stated), for which the “growth rescue (activation)” value was inactive: 17.7%.

As for `CC(=O)c1ccc(S(=O)(=O)N2CCN(C)CC2)cc1`, the “growth rescue (activation)” value was inactive: 11.1%. Consider `CCC(CC)C(=O)N(C)c1c(C)nc2c(OCc3ccccc3C)cccn12`, for which the “growth rescue (activation)” value was inactive: -13.9%.

On to `CCCS(=O)(=O)NC(=O)C1(C)CCCN(C(=O)c2c(C)noc2C)C1` (configuration not stated), for which the “growth rescue (activation)” value is inactive: -9.72%.

For the compound `COc1ccc(C(=O)O)cc1S(=O)(=O)N(C)C`, the “growth rescue (activation)” value was inactive: -3.24%. Take `CCCCN(C=O)c1c(CC)nc2c(OCc3cc(Cl)cc(Cl)c3)cccn12`: the “growth rescue (activation)” value was inactive: -11.7%. As for `CCNC(=O)C1CCCN(Cc2cc(-c3ccccc3)on2)CC1` (configuration not stated), the “growth rescue (activation)” value is inactive: 4.09%. For the compound `O=C(COc1cccnc1[N+](=O)[O-])Nc1ccc(F)cc1`, the “growth rescue (activation)” value was inactive: 18%. Turning to `COc1cc(CCC(=O)N2CCN(c3ncccn3)CC2)cc(OC)c1OC`, the “growth rescue (activation)” value is inactive: 6.04%. As to `Cc1ccc(N(CC(=O)NCCc2ccccc2)C(=O)c2csnn2)cc1`, the “growth rescue (activation)” value is inactive: -3.46%. With `Cc1cccc(NC(=O)CN2C(=O)S/C(=C\c3ccc(O)c([N+](=O)[O-])c3)C2=O)c1`, the “growth rescue (activation)” value is inactive: -0.269%. In the case of `COc1cc(C#N)ccc1OCC(=O)N1CCc2ccccc2C1`, the “growth rescue (activation)” value is inactive: 12.5%. Then `CN1C(=O)N(C)c2ccc(C=O)c3cccc1c23`, with inactive: 1.3%; and `Cc1cccc(NC2=C(NCCO)C(=O)c3ccccc3C2=O)c1`, with inactive: 4.42%; and `CCN(CC)c1ccc(S(=O)(=O)N2CCOCC2)cc1NC(=O)Nc1ccccc1`, with inactive: -3.88%. On to `O=C(CSc1nnc2ccccn12)c1ccc(Cl)cc1`, for which the “growth rescue (activation)” value was inactive: 9.01%.

Regarding `O=C(O)c1cccc(Nc2nc3ccccc3nc2NS(=O)(=O)c2ccccc2)c1`, the “growth rescue (activation)” value was inactive: 18.4%.

On to `CC(c1nccs1)N(C)C(=O)CCc1nnc(CCc2ccccc2)o1` (configuration not stated), for which the “growth rescue (activation)” value is inactive: 3.33%. As for `O=C(O)c1nn(CC(=O)N2CCN(c3ncc(C(F)(F)F)cc3Cl)CC2)c(=O)c2ccccc12`, the “growth rescue (activation)” value is inactive: 1.63%. As for `COc1cc(NC(=O)c2cccs2)cc(OC)c1`, the “growth rescue (activation)” value was inactive: -22.9%.

For `COc1cc(C(=O)NC(C)Cc2cccs2)cc(OC)c1OC` (configuration not stated), the “growth rescue (activation)” value was inactive: -4.72%. Take `CC(=O)Nc1ccc(S(=O)(=O)N(C)CC(=O)OCC(=O)NC(C)C23CC4CC(CC(C4)C2)C3)cc1` (configuration not stated): the “growth rescue (activation)” value is inactive: 3.28%.

As to `C/C(=N\Nc1nc2ccccc2c(=O)n1O)c1ccco1`, the “growth rescue (activation)” value was inactive: 1.91%.

With `COc1ccc(N2CCOCC2)c(NC(=O)c2ccc3c(c2)OCO3)c1`, the “growth rescue (activation)” value is inactive: 14.1%. The same measure for `COc1ccc(-c2cn3cc(Br)cnc3n2)cc1`: inactive: 3.96%; for `Cn1cccc1C(=O)NC(=O)COC(=O)CNS(=O)(=O)c1ccc(Br)cc1`: inactive: 8.36%.

For `COc1ccc(OCCn2cnc(Cl)c2Cl)cc1`, the “growth rescue (activation)” value is inactive: 24.9%. Take `Cc1ccc(CN(C(=O)c2csnn2)C(C(=O)NC2CCCC2)c2ccco2)cc1` (configuration not stated): the “growth rescue (activation)” value is inactive: 2.42%.

As for `CC(=O)c1cc2c(cc1NS(=O)(=O)c1cccc(C(=O)O)c1)OCO2`, the “growth rescue (activation)” value was inactive: -15.3%.

On to `COC(=O)Cc1c(C(=O)OC)nnn1-c1ccc(OC(F)(F)F)cc1`, for which the “growth rescue (activation)” value is inactive: 1.05%.

As to `Nc1c(C(=O)OCC(=O)Nc2cccc([N+](=O)[O-])c2)[nH]c(=O)[nH]c1=O`, the “growth rescue (activation)” value is inactive: 1.22%. The same measure for `COc1ccc(S(=O)(=O)NCCc2cc3ccc(C)c(C)c3[nH]c2=O)cc1`: inactive: -6.09%; for `COc1ccc(S(=O)(=O)N(CC(=O)NCCC(C)C)c2ccccc2)cc1OC`: inactive: -4.55%. For `CCNC(=O)C1(C)CCN(C(=O)c2ccc(C#N)cc2)C1` (configuration not stated), the “growth rescue (activation)” value is inactive: -2.56%.

Turning to `CCOC(=O)C1(CC2CC2)CCN(C(=O)c2cc(OC)nc3ccccc23)CC1`, the “growth rescue (activation)” value is inactive: 24.5%. Consider `COc1ccc(-c2nc(C)sc2CC(=O)O)cc1OC`, for which the “growth rescue (activation)” value is inactive: 7.89%. On to `Cc1ccc(-c2sc(-c3ccccc3)nc2CC(=O)Nc2ccccc2F)cc1`, for which the “growth rescue (activation)” value was inactive: 3.08%. In the case of `COc1ccc(C(=O)NCCNC(=O)c2ccccn2)cc1`, the “growth rescue (activation)” value is inactive: -7.8%. Then `Cc1ccc(NC(=O)Nc2ccnc(-c3cccnc3)n2)cc1`, with inactive: 17.4%. `O=C(CCc1ccccc1)NCCSc1ccccc1`: the “growth rescue (activation)” value was inactive: 27.8%. For the compound `O=C(Nc1ccc(N2CCCC2)c(Cl)c1)c1cccc(-c2cc3ccccc3oc2=O)c1`, the “growth rescue (activation)” value is inactive: 23%.

Consider `COc1ccc(C2CC(=O)C3=C(C2)NC(C)=C(C#N)C3c2ccc(N(C)C)cc2)cc1` (configuration not stated), for which the “growth rescue (activation)” value is inactive: 5.51%.

Take `Cn1c(=O)n(C)c2cc(NS(=O)(=O)c3ccc(F)cc3)ccc21`: the “growth rescue (activation)” value is inactive: -0.43%. Then `CCOc1ccc(NC(=S)N2CCN(S(=O)(=O)c3ccc(OC)cc3)CC2)cc1`, with inactive: 17.6%. On to `Cc1cc(C)n2c(Nc3ccc(Cl)cc3)c(-c3ccsc3)nc2n1`, for which the “growth rescue (activation)” value is inactive: 14.7%. With `Cc1nn(Cc2ccccc2)c(C)c1NC(=O)CSc1nc(-c2ccccc2)nc2c1cnn2-c1ccccc1`, the “growth rescue (activation)” value was inactive: 37.5%. For the compound `O=C(NN1C(=O)c2ccccc2C1=O)c1ccc2c(c1)C(=O)N(CC1CCCO1)C2=O` (configuration not stated), the “growth rescue (activation)” value is inactive: 27.7%. Regarding `CCCS(=O)(=O)NC(=O)C1(C)CCN(C(=O)c2cc(C)oc2C)C1` (configuration not stated), the “growth rescue (activation)” value was inactive: 3.36%. As for `O=C(NCCCN1CCCCCC1)c1ccc(CS(=O)(=O)Cc2ccccc2F)o1`, the “growth rescue (activation)” value was inactive: -14.9%.

For the compound `COc1ccc(C)cc1S(=O)(=O)NCc1cccs1`, the “growth rescue (activation)” value is inactive: 14.3%. The same measure for `COc1ccc(CCNC(=O)c2ccc(OCc3c(C)noc3C)c(OC)c2)cc1`: inactive: 23.3%; for `CC1CN(CC(=O)NCc2ccc(F)cc2)CC(C)O1` (configuration not stated): inactive: 4.63%; for `COc1ccc(OC)c(S(=O)(=O)N2CCCC(C(=O)NCc3ccccn3)C2)c1` (configuration not stated): inactive: 3.4%. For the compound `CC1(C(=O)Nc2cccc(NS(C)(=O)=O)c2)Cc2c(-c3cccc(C(N)=O)c3)ccnc2O1` (configuration not stated), the “growth rescue (activation)” value is inactive: 4.76%. Take `O=C(c1ccc2c(c1)OCO2)N1CCN(c2ccccn2)CC1`: the “growth rescue (activation)” value is inactive: 11.3%. On to `Cc1cccc(C)c1OCC(=O)NC(Cc1c[nH]c2ccccc12)C(=O)O` (configuration not stated), for which the “growth rescue (activation)” value is inactive: -5.17%. On to `O=S(=O)(c1ccc(OCC(O)CNC23CC4CC(CC(C4)C2)C3)c(Cl)c1)N1CCOCC1` (configuration not stated), for which the “growth rescue (activation)” value is inactive: 8.97%. For `Cc1c(C(=O)Nc2cccc(S(=O)(=O)N3CCOCC3)c2)oc2ccccc12`, the “growth rescue (activation)” value was inactive: -0.938%. With `COc1cc(C(C)=O)ccc1OCC(=O)NCCCn1nc(C)cc1C`, the “growth rescue (activation)” value was inactive: -0.089%. For the compound `CC1(Cc2ccccc2OC(F)(F)F)C(=O)Nc2c(Cl)ccc(Cl)c21` (configuration not stated), the “growth rescue (activation)” value was inactive: -4.61%. `C/C(=N\NS(=O)(=O)c1ccccc1)c1cccc(NC(=O)c2cccc(Cl)c2)c1`: the “growth rescue (activation)” value was inactive: 7.34%. Turning to `CC(=O)Nc1ccc(S(=O)(=O)NNC2=NS(=O)(=O)c3ccccc32)cc1`, the “growth rescue (activation)” value is inactive: -1.5%. On to `C=CCN(C(=O)c1csnn1)C(C(=O)NCc1ccc(F)cc1)c1ccccc1` (configuration not stated), for which the “growth rescue (activation)” value is inactive: 15.9%.
